The whole screen tested about 350,000 compounds, of which about 31,000 (8.9%) were called active. The inconclusive results got no clear call from the source; some entries with a clear call stand among them for comparison. The call rests on the fitted dose curve; in most records, active means well fitted inhibition curve with a large enough effect; inconclusive means small, poorly fitted or top-dose-only effect; inactive means no such curve, though single readings can be large or run the other way. Potencies of inconclusive entries are doubtful fits and often do not repeat.
These compounds were tested against Histone-lysine N-methyltransferase EHMT2 (Homo sapiens) (UniProt Q96KQ7) (assay: qHTS Assay for Inhibitors of Histone Lysine Methyltransferase G9a). Conditions: G9a H3K9 monomethylation, AlphaScreen, 2 h; activity, negative = inhibition: at 59 µM (top of the series) unless noted.
Chain of UniProt Q96KQ7 (Q96KQ7 whole entry, looked up): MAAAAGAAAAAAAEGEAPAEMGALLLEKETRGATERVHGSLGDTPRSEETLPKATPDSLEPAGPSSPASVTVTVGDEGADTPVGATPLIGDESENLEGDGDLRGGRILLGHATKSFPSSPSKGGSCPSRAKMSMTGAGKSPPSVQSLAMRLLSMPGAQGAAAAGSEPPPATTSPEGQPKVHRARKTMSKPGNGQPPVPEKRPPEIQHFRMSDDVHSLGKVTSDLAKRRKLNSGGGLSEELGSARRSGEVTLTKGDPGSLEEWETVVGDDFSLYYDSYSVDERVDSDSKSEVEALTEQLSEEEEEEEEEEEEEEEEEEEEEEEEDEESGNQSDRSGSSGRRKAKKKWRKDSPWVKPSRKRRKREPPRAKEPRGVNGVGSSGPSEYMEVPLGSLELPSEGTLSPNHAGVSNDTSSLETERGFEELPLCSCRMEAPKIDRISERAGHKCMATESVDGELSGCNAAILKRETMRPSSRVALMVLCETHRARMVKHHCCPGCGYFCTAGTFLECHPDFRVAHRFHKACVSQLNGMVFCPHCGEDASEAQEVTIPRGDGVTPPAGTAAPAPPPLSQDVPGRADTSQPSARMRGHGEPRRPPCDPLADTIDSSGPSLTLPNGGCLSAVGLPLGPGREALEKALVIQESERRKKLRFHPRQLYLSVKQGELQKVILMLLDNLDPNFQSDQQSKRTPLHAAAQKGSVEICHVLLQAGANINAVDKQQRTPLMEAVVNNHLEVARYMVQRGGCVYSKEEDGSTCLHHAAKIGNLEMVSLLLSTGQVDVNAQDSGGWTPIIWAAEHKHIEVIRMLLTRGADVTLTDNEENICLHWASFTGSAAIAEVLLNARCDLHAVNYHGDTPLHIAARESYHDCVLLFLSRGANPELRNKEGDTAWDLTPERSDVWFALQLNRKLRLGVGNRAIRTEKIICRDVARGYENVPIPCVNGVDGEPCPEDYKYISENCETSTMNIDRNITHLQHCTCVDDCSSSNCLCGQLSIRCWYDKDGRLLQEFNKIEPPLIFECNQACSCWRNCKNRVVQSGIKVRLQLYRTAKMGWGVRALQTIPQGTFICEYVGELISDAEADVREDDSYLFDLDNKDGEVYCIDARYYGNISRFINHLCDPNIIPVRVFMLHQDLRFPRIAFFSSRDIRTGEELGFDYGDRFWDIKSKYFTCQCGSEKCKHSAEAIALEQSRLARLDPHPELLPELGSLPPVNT
Procedure, shortened: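 Quantitative HTS format: methyltransferase activity on a biotin-tagged H3K9 peptide is measured by AlphaScreen, using a rabbit anti-monomethyl-H3K9 antibody with streptavidin donor and anti-IgG acceptor beads. Final levels are 20 nM enzyme, 500 nM peptide, 20 uM SAM; 2 h RT.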
For `O=S(=O)(Nc1ccc(N2CCOCC2)cc1)c1ccc(F)cc1`, the Potency was inconclusive: 79.4 µM [inhibitor, partial curve, poor fit]. For `O=C1CC(c2ccc(F)cc2)Sc2nc(C34CC5CC(CC(C5)C3)C4)nn21` (stereo not drawn), the Potency was inconclusive: 20 µM [inhibitor, single point]. For `COCC(=O)N1CCC(Oc2ccc(C(=O)N(C)CCCC3CCCC3)cc2)CC1`, the “activity, negative = inhibition” value was inactive: 18.5%. In the case of `CN(c1ccccc1)S(=O)(=O)c1nnc(NC(=O)C2CCCCC2)s1`, the Potency is reported as inconclusive: 3.16 µM [inhibitor, partial curve, poor fit]. In the case of `O=C(CSc1nnc(-c2ccncc2)n1-c1ccccc1)N1CCN(c2ccc(Cl)cc2)CC1`, the Potency is reported as active: 28.2 µM. With `Cc1ccc(NC(=O)CSc2nnc(-c3ccccc3Br)o2)cc1C` the Potency was active: 10 µM. With `COc1ccc(N2CCN(C(c3cccs3)C(C)NC(=O)C(=O)N3CCOCC3)CC2)cc1` (stereo not drawn) the Potency was inconclusive: 79.4 µM [inhibitor, single point]. `CN(C)CCn1c(=O)n(Cc2ccco2)c(=O)c2c3c(sc21)CCCCC3` was tested, and the activity, negative = inhibition was inconclusive: -70.3% [inhibitor]. With `CC1CCC(NC(=O)COC(=O)C2CC3CCCC(C2)C3=O)CC1` (stereo not drawn) the Potency was inconclusive: 89.1 µM [inhibitor, single point]. For `Cc1c(Cl)cccc1NC(=O)CCS(=O)(=O)c1ccc2c(c1)oc(=O)n2C`, the Potency was inconclusive: 39.8 µM [inhibitor, single point]. For `Cc1ccc(N(C(C)C(=O)O)S(=O)(=O)c2cccnc2)cc1` (stereo not drawn), the Potency was inconclusive: 79.4 µM [inhibitor, single point]. In the case of `CC(C)(C)OC(=O)N1CCN(c2ccc(NC(=O)Cn3nnc(-c4ccccc4)n3)cc2)CC1`, the Potency is reported as inconclusive: 35.5 µM [inhibitor, single point]. With `C/C(CCC(C)C)=N\NC(=S)NCc1ccccc1` the Potency was active: 44.7 µM. For `CCCCN1CC(=O)N2[C@H](c3ccc(Cl)cc3)[C@@H]3C(=O)N(CC)C(=O)[C@@H]3[C@]2(Cc2ccccc2)C1=O`, the “activity, negative = inhibition” value was inactive: 11.1% [at 102 µM]. With `COc1ccc(OC(=O)c2cccc([N+](=O)[O-])c2)c(C(=O)/C=C/c2cccs2)c1` the Potency was inconclusive: 70.8 µM [inhibitor, single point]. In the case of `Nc1nonc1C(=O)NCCNC(=O)c1ccc(Cl)c(Cl)c1`, the “activity, negative = inhibition” value is reported as inactive: 10.4% [at 102 µM]. For `N#Cc1c(NC(=O)c2ccccc2Cl)n(Cc2ccccc2)c2nc3ccccc3nc12`, the Potency was inconclusive: 89.1 µM [inhibitor, single point]. `Cc1cc(NC(=O)CSc2ccc3nnc(-c4ccccc4)n3n2)no1` was tested, and the Potency was inconclusive: 22.4 µM [inhibitor, single point]. `O=C(O)C1CSCN1S(=O)(=O)c1cccc2nsnc12` (stereo not drawn) was tested, and the Potency was inconclusive: 31.6 µM [inhibitor, single point]. In the case of `Cc1c(CCOC(=O)c2cc([N+](=O)[O-])cc([N+](=O)[O-])c2)sc[n+]1CC(=O)c1ccc(Br)cc1`, the Potency is reported as active: 2.51 µM. In the case of `COc1cccc(C(=O)N(Cc2cccnc2)c2nc3c(OC)ccc(C)c3s2)c1OC`, the Potency is reported as inconclusive: 7.94 µM [inhibitor, partial curve, poor fit]. `COc1ccc(C(=O)N2CCCC(CNC(=O)c3ccccc3Cl)C2)o1` (stereo not drawn) was tested, and the “activity, negative = inhibition” value was inactive: 23% [at 102 µM]. In the case of `COc1ccc(NCc2cc3cc4c(cc3n(CC(=O)Nc3ccc(F)cc3)c2=O)OCCO4)cc1`, the Potency is reported as inconclusive: 3.98 µM [inhibitor, single point]. In the case of `COc1ccccc1OCCSc1nc2ccc([N+](=O)[O-])cc2s1`, the Potency is reported as active: 12.6 µM. `Cc1c(NC(=O)Nc2cc(Cl)ccc2Cl)c(=O)n(-c2ccccc2)n1C` was tested, and the Potency was inconclusive: 20 µM [inhibitor, partial curve]. For `O=C(C[n+]1ccccc1)N1CCCc2ccccc21`, the “activity, negative = inhibition” value was inactive: 9.88% [at 102 µM]. For `CC(C)c1ccc(NC(=S)NNC(=O)c2cccnc2)cc1`, the Potency was active: 31.6 µM. `N#C/C(=N\Nc1cccc(F)c1)C(=O)C1CC1` was tested, and the Potency was inconclusive: 50.1 µM [inhibitor, partial curve]. With `CCOC(=O)/C(C#N)=C/c1c(N2CCN(c3ccc(OC)cc3)CC2)nc2c(C)cccn2c1=O` the Potency was active: 8.91 µM. In the case of `O=C(O)CCC(=O)CCC(=O)c1ccc(Cl)cc1`, the Potency is reported as inconclusive: 89.1 µM [inhibitor, single point]. `O=C1C(=O)N(Cc2cccnc2)C(c2ccccn2)/C1=C(/O)c1ccc(Br)cc1` (stereo not drawn) was tested, and the activity, negative = inhibition was inconclusive: -74.3% [inhibitor]. For `O=C(c1ccco1)N1CCN(C(=O)C(Cc2ccccc2)NS(=O)(=O)c2cccs2)CC1` (stereo not drawn), the activity, negative = inhibition was inconclusive: -51% [inhibitor]. With `CCOC(=O)c1c(/C=N/Nc2ccccc2)c2sc(C)cc2n1C` the Potency was inconclusive: 2 µM [inhibitor, partial curve, poor fit]. `Cn1c(=O)c2c(nc(SCCOc3ccc4ccc(=O)oc4c3)n2C)n(C)c1=O` was tested, and the Potency was inconclusive: 35.5 µM [inhibitor, full curve]. In the case of `NS(=O)(=O)c1ccc(Nc2ccc([N+](=O)[O-])c3nonc23)cc1`, the activity, negative = inhibition is reported as inconclusive: -99.7% [inhibitor]. `CC(=O)NC(CC(=O)NCCc1ccccc1)c1ccccc1` (stereo not drawn) was tested, and the “activity, negative = inhibition” value was inactive: 6.12% [at 102 µM]. For `Cc1ccccc1C(=O)NCc1nnc(SCC(=O)N2c3ccccc3Sc3ccccc32)n1C`, the Potency was inconclusive: 89.1 µM [inhibitor, single point]. In the case of `N#Cc1c(-n2cccc2)cccc1-n1cccc1`, the Potency is reported as inconclusive: 89.1 µM [inhibitor, single point]. With `COc1cccc(C(=O)NCc2cn3ccccc3n2)c1` the Potency was inconclusive: 31.6 µM [inhibitor, partial curve, poor fit]. `c1cncc(-c2nc(NCc3ccco3)c3ccccc3n2)c1` was tested, and the Potency was inconclusive: 10 µM [inhibitor, partial curve, poor fit]. In the case of `Cn1c(=O)cc(OCC(=O)NCCCN2CCN(Cc3ccccc3)CC2)c2ccccc21`, the Potency is reported as inconclusive: 31.6 µM [inhibitor, partial curve, poor fit]. With `NCCCC(=O)O` the Potency was active: 2.82 µM. With `CCOC(=O)c1ccccc1NC(=O)COC(=O)C1=COCCO1` the Potency was inconclusive: 89.1 µM [inhibitor, single point].
Further: nearly all actives have a fitted effect of over 75% in size.
On the % scale 0 is the no-effect control and ±100 the full control effect; potency means the concentration at half of the fitted maximal effect; tags describe the fitted curve by direction and shape.
